Experimental data as given in PubChem BioAssay AID651820 (National Center for Advancing Translational Sciences (NCATS), 2012).
Values joined by “and” are separate entries in the source; they are usually repeats but may differ in a detail not shown here. Equal values may be shown once. The campaign covered roughly 340,000 compounds. About 12,000 (3.5%) were called active. The shares of active, inactive and inconclusive entries below differ from those in the screen. Calls follow the shape of the dose curve; as a rule, active = well fitted inhibition curve with a large enough effect; inconclusive = small, poorly fitted or top-dose-only effect, or another doubt; inactive = no such curve, though single readings can be large or run the other way. Where the call is inconclusive, the potency comes from a doubtful curve fit.

Assay: qHTS Assay for Inhibitors of Hepatitis C Virus (HCV)
Details: Huh7.5.1 HCVcc-Cre (HCVcc is cell-culture hepatitis C virus) infection, luciferase reporter, 44 h; activity change, negative = inhibition: at 41.8 µM (top of the series) unless noted
Procedure, shortened: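 1,000 cells/well; 4 h culture; + compound; + HCVcc-Cre (~0.5 moi); 44 h; luciferase substrate, RT 15 min; read 15 sec.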
% is scaled to controls: 0 for no effect and ±100 for the full control effect; potency is read from the fitted curve at half-maximal effect; tags tell the direction and shape of the fitted curve.

SMILES | Potency | activity change, negative = inhibition
CCCCOc1ccc(C(=O)Nc2ccncc2)cc1 | active: 8.91 µM | –
Cc1cc(C)n(CC(=O)NCc2ccccc2)c(=O)c1C#N | – | inactive: 8.74%
CCCNc1nc2c(c(=O)[nH]c(=O)n2C)n1CCc1ccccc1 | inconclusive: 10 µM [inhibitor, single point] | –
CCC(=O)N/C(N)=N/c1nc(C)c2cc(OC)ccc2n1 | inconclusive: 6.31 µM [inhibitor, partial curve] | –
Nc1nc2nc(-c3ccc(F)cc3)cc(C(F)(F)F)n2n1 | inconclusive: 3.55 µM [inhibitor, single point] | –
Cc1cc(OC(C)C(=O)Nc2ccncc2)ccc1Cl (stereo unspecified) | inconclusive: 12.6 µM [inhibitor, single point] | –
CCOc1ccc(/C=C/C(=O)OCC(=O)Nc2cccc(S(=O)(=O)N3CCCC3)c2)cc1 | inconclusive: 31.6 µM [inhibitor, single point] | –
O=C1[C@H]2[C@@H](c3ccc(F)cc3)N3C(=O)N(c4cccc(Br)c4)C(=O)[C@@]3(Cc3ccc(Cl)cc3)[C@H]2C(=O)N1C1CCCCC1 | – | inactive: 6.43%
N#Cc1c(N)nc(SCc2ccccc2)c(C#N)c1-c1ccco1 | inconclusive: 31.6 µM [inhibitor, single point] | –
CN1CCN(CCCNC(=O)c2ccc(CSCc3cccc(Cl)c3)o2)CC1 | – | inactive: -27.5%
CN1CCN(C2=Nc3cc(Cl)ccc3Nc3ccccc32)CC1 | inactive | –
CCOC(=O)c1c(NC(=O)CN2CCOCC2)sc2c1CCCC2=O | inconclusive: 12.6 µM [inhibitor, partial curve] | –
Cc1ccc(CNS(=O)(=O)c2ccc(C(C)(C)C)cc2)n1C | – | inactive: 0.317%
Cc1ccc(OCC(=O)O/N=C(\N)c2ccncc2)c(C)c1 | – | inactive: -4.31%
COc1cc(C(O)c2nc3ccccc3n2C)cc(OC)c1OC (stereo unspecified) | inconclusive: 31.6 µM [inhibitor, single point] | –
COc1cccc(NC(=O)COC(=O)c2ccccc2C(=O)N2CCN(c3ccccc3)CC2)c1 | inconclusive: 31.6 µM [inhibitor, single point] | –
Cc1noc(C)c1COc1ccc(C(=O)N2CCN(c3ccccc3O)CC2)cc1 | inconclusive: 10 µM [inhibitor, partial curve] | –
CCc1ccc(/C=N/NC(=O)c2cc(-c3ccncc3)nc3ccccc23)s1 | inconclusive: 6.31 µM [inhibitor, partial curve] | –
CCCN1CCC(=O)N([C@H](CSc2ccc(C)cc2)Cc2ccccc2)CC1 | – | inactive: -3.41%
COc1ccc(C)cc1NC(=O)c1cnc2n(c1=O)CCS2 | inconclusive: 22.4 µM [inhibitor, single point] | –
CCCCNC(=O)CC1N=C2c3ccccc3N=C(SCC(=O)Nc3cccc(C)c3)N2C1=O (stereo unspecified) | – | inactive: -6.27%
CN1CCN(c2c(F)cc([N+](=O)[O-])c(N)c2Br)CC1 | inconclusive: 7.94 µM [inhibitor, partial curve] | –
CSc1ccccc1NC(=O)c1cc(S(=O)(=O)N(C)C)ccc1N1CCCC1 | – | inactive: 8.62%
COc1cccc(NS(=O)(=O)c2ccc3c(c2)CCN3C(C)=O)c1 | active: 1.58 µM | –

SMILES | Potency | activity change, negative = inhibition
COc1ccc(C)cc1NC(=O)CN1CCN(S(=O)(=O)c2ccc(Cl)cc2)CC1 | inconclusive: 31.6 µM [inhibitor, single point] | –
CC(=O)/C(N=Nc1cc2c(cc1[N+](=O)[O-])OCCO2)=C(\C)O | – | inactive: 0.664%
COc1ccc2c(CC(=O)Nc3cccc(S(=O)(=O)N4CCOCC4)c3)coc2c1 | inconclusive: 22.4 µM [inhibitor, single point] | –
CCOCCCn1c(=S)[nH]c2cc(C(=O)NCCOC)ccc2c1=O | inconclusive: 10 µM [inhibitor, partial curve] | –
O=C(CCl)N(Cc1cccc([N+](=O)[O-])c1)c1cccc(Cl)c1 | active: 3.98 µM | –
CC(C)N(C)Cc1cn(C)nc1-c1ccc(Oc2ccccc2)cc1 | inconclusive: 31.6 µM [inhibitor, single point] | –
CCCCc1nc(NCCNC(=O)c2ccco2)c(C#N)c2c1CSC(C)(C)C2 | active: 11.2 µM | –
CCCCNc1ccc2c3c(cccc13)C(=O)N(CCCC)C2=O | inconclusive: 31.6 µM [inhibitor, single point] | –
CCC(C)NC(=O)CCC(=O)Nc1ccc2nc(N3CC(C)CC(C)C3)cc(C)c2c1 (stereo unspecified) | inconclusive: 4.47 µM [inhibitor, partial curve] | –
COc1cc(OC)cc(C(=O)N[C@H](C(=O)Nc2nc(-c3cc(OC)ccc3OC)cs2)C(C)C)c1 | inconclusive: 10 µM [inhibitor, partial curve] | –
CN(C)CC/C=C1\c2cc(Cl)ccc2Sc2cc(F)c(F)cc21 | active: 11.2 µM | –
COC(=O)c1cc(NS(=O)(=O)c2ccc(C)c3ccccc23)ccc1N1CCOCC1 | active: 22.4 µM | –
O=C(N/N=C/C=C/c1ccccc1)c1ccncc1 | – | inactive: 3.43%
COc1ccc(NC(=O)CSCC(=O)N(C)Cc2ccc3c(c2)OCCO3)cc1 | inconclusive: 2 µM [inhibitor, partial curve] | –
CCOC(=O)CSc1nc2sc3c(c2c(=O)n1-c1ccc(OC)cc1)CCN(C)C3 | inconclusive: 11.2 µM [inhibitor, partial curve] | –
COc1ccc(CN(C(=O)c2cc3ccccc3oc2=O)C2CCCC2)cc1 | inconclusive: 31.6 µM [inhibitor, single point] | –
CCOc1ccc(N2C(=O)C(c3ccccc3)=C(c3nc4ccccc4s3)C2NC(C)=O)cc1 (stereo unspecified) | – | inactive: -23%
Cc1ccccc1OCc1n(CC(=O)OC2CC(C)CCC2C(C)C)c2ccccc2[n+]1C (stereo unspecified) | inconclusive: 31.6 µM [inhibitor, single point] | –
COc1cc2nc(Nc3ccc(C)c(Cl)c3)nc(N)c2cc1OC | inconclusive: 31.6 µM [inhibitor, single point] | –
COc1cc(C(=O)Nc2nc(C)c(Cc3ccc4c(c3)OCO4)s2)cc(OC)c1OC | active: 10 µM | –
CC(C)c1nc(-c2ccc([N+](=O)[O-])cc2)cs1 | – | inactive: -5.89%
O=C(CSc1nnc(SCc2cccc3ccccc23)s1)Nc1ccc(C(=O)O)cc1 | – | inactive: 8.86%
Cc1ccc(NC2CCCN(C(=O)c3cn(C)c4ccccc34)C2)cc1C (stereo unspecified) | inconclusive: 31.6 µM [inhibitor, single point] | –
O=C(c1ccc(S(=O)(=O)N2CCCCCC2)cc1)N1CCN(Cc2ccccc2)CC1 | inconclusive: 10 µM [inhibitor, partial curve] | –

SMILES | Potency | activity change, negative = inhibition
COc1cc(-c2nc3cc(C)ccn3c2NC2CCCCC2)ccc1-c1ccc(C(C)=O)cc1 | inconclusive: 31.6 µM [inhibitor, single point] | –
CCCN(CCC)CC(C)(C)NS(=O)(=O)c1ccc(Cl)cc1 | inconclusive: 35.5 µM [inhibitor, partial curve, poor fit] | –
Cc1cccc(N2CCN(C(=O)c3cc4n(n3)C(C(F)(F)F)CC(c3ccco3)N4)CC2)c1C (stereo unspecified) | inconclusive: 22.4 µM [inhibitor, single point] and inconclusive: 31.6 µM [inhibitor, single point] | –
O=C(NCCS(=O)(=O)NCc1cccnc1)c1ccccc1 | – | inactive: 12.9%
O=C(O)/C(=C\c1ccc(Br)cc1)NC(=O)c1cccs1 | inconclusive: 5.62 µM [inhibitor, single point] | –
CCOc1cc(C#N)c(NC(=O)c2cccnc2)cc1OCC | inconclusive: 10 µM [inhibitor, partial curve] | –
Cc1ccc(-c2nc3c(c(=O)[nH]c(=O)n3Cc3ccccc3)n2Cc2ccccc2)o1 | inconclusive: 22.4 µM [inhibitor, single point] | –
CC(=O)Nc1ccc(-c2csc(Nc3ccccn3)n2)cc1 | inconclusive: 10 µM [inhibitor, partial curve] | –
COc1cccc(CN2CCCC(C(=O)c3ccccc3SC)C2)c1O (stereo unspecified) | inconclusive: 31.6 µM [inhibitor, single point] | –
COc1ccc(OC)c(CCNC(=O)c2ccccc2NC(=O)C2=C(C)OCCS2)c1 | inconclusive: 31.6 µM [inhibitor, single point] | –
Cc1csc(SCC(=O)Nc2oc(C)c3c(C)n[nH]c(=O)c23)n1 | – | inactive: 6.86%
O=C(Nc1ccc2ccccc2c1)c1ccc(Cl)cc1Cl | inconclusive: 7.94 µM [inhibitor, partial curve] | –
COCCCNC(=O)c1c(N)n(-c2ccc3c(c2)OCO3)c2nc3ccccc3nc12 | inconclusive: 10 µM [inhibitor, partial curve] | –
CC1CCN(c2nc3ccc(C(=O)O)cc3s2)CC1 | – | inactive: 25.4%
COc1cc(Cl)c(C)cc1NC(=O)CN(C)Cc1cccc(OC)c1OC | active: 10 µM | –
Cc1ccc(NC(=O)Cc2nc(COC(=O)c3c(F)cccc3Cl)cs2)cc1 | active: 8.91 µM | –
O=C(CSc1n[nH]c(=O)n1Cc1ccco1)Nc1ccccc1Cl | – | inactive: -17.8%
COc1ccc(C(=O)OCC(=O)c2c[nH]c3ccccc23)c(OC)c1 | inconclusive: 11.2 µM [inhibitor, single point] | –
CCOc1ccc(CCNC(=O)c2ccc(CS(=O)Cc3ccc(Cl)cc3)o2)cc1OCC (stereo unspecified) | active: 2.51 µM | –
COc1ccc(CSc2nnc(Cc3sc(-c4ccccc4)nc3-c3ccccc3)o2)cc1 | – | inactive: -6.42%
CCn1cc(C(=O)O)c(=O)c2cc(F)c(N3CCN(C(=S)NC(=O)c4cc(OC)cc(OC)c4)CC3)cc21 | inconclusive: 11.2 µM [inhibitor, single point] | –
Cc1nnc(NCc2ccco2)s1 | – | inactive: 7.44%
COc1ccc(CNC(=O)[C@H](C)NC(=O)C2CCN(C(=O)[C@H](CCSC)NC(=O)OC(C)(C)C)CC2)cc1 | – | inactive: -23.4%
